# Assay results published in PubChem BioAssay AID652106 (National Center for Advancing Translational Sciences (NCATS), 2013).
# The whole screen tested about 370,000 compounds, of which about 500 (0.14%) were called active. This list was built around the results that the source calls inconclusive (neither active nor inactive); the mix of calls is not that of the screen. Calls follow the shape of the dose curve; as a rule, active = well fitted activation curve with a large enough effect; inconclusive = small, poorly fitted or top-dose-only effect; inactive = no such curve, though single readings can be large or run the other way. A potency beside an inconclusive call is a rough fit, not a confirmed value.
# Assay: qHTS of alpha-syn Inhibitors; also: nearly all actives have a fitted effect of over 65% in size; as to growth rescue (activation): % of control where 0% means no effect
# Conditions: Yeast expressing alpha-synuclein, BacTiter-Glo, 24 h; Potency: growth rescue unless noted; growth rescue (activation): at 46.1 µM (top of the series) unless noted
# In short: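 Galactose-induced alpha-syn yeast (OD600=0.02, raffinose-pregrown) + pinned cpd, 24 hr, 30 deg C; growth by BacTiter-Glo luminescence. Growth restoration scores as activation.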
# Potency is read from the fitted curve at half-maximal effect; tags tell the direction and shape of the fitted curve.
SMILES,Potency,growth rescue (activation)
O=C(N/N=C/c1ccccn1)c1[nH]c2ccc([N+](=O)[O-])cc2c1-c1ccccc1,"inconclusive: 31.6 µM [activator, single point]",–
O=C(OC(C(=O)Nc1cc(Cl)cc(Cl)c1)c1ccccc1)C1=COCCO1 (centres undefined),"inconclusive: 35.5 µM [activator, single point]",–
CCc1ccc(NC(=O)C(C)OC(=O)c2ccc(NS(=O)(=O)c3ccc(C)c([N+](=O)[O-])c3)cc2)cc1 (centres undefined),inactive,–
CCOc1ccccc1NC(=O)CN(C)S(=O)(=O)c1cccc2nsnc12,"inconclusive: 35.5 µM [activator, single point]",–
CSc1nnc2c3c4c(sc3nc(-n3nc(C)cc3C)n12)COC(C)(C)C4,"inconclusive: 35.5 µM [activator, single point]",–
COc1cc(C(=O)OCC(=O)Nc2ccccc2)cc2c1OCCO2,"inconclusive: 35.5 µM [activator, single point]",–
CCOc1ccc(-c2cc(C(=O)O)c3ccccc3n2)c(OCC)c1,"inconclusive: 35.5 µM [activator, single point]",–
Cc1nn(-c2cc(C)c3ccccc3n2)c2c1C1C(C2)C1(C)C (centres undefined),"inconclusive: 15.8 µM [activator, partial curve]",–
O=C(c1ccncc1)N1CCCC(N2CCN(c3cccc(C(F)(F)F)c3)CC2)C1 (centres undefined),"inconclusive: 15.8 µM [activator, single point]",–
COc1ccc(C2/C=C\CN(C(=O)OCC3c4ccccc4-c4ccccc43)CC(=O)N2Cc2cccc(F)c2)cc1 (centres undefined),"inconclusive: 12.6 µM [activator, partial curve, poor fit]",–
Cc1occc1C(=O)NCc1ccccc1F,inactive,–
Oc1ccc2ccccc2c1/C=C/c1ccc2c(Br)cc(Br)c(O)c2n1,"inconclusive: 35.5 µM [activator, single point]",–
O=C(O)c1ccc2c(c1Nc1ccccc1)C(=O)c1ccccc1C2=O,active: 12.6 µM,–
CC(C)COCc1ccc(O)c2ncccc12,"inconclusive: 35.5 µM [activator, single point]",–
COC(=O)c1ccc2nc(-c3ccco3)c(Cc3ccc(OC)cc3C)n2c1,"inconclusive: 12.6 µM [activator, partial curve]",–
CCn1c(/C=C/c2ccccc2F)nc2ccccc2c1=O,inactive,–
COc1ccc(NC(=O)C(C2CC2)n2c(=O)c(-c3cc4ccccc4[nH]3)nc3ccccc32)cc1 (centres undefined),active: 14.1 µM,–
COc1cccc2cc(-c3nc4ccccc4[nH]3)c(=O)oc12,"inconclusive: 8.91 µM [activator, partial curve]",–
COc1cc2oc3ccc(C#Cc4ccccn4)cc3c(=O)c2cc1OC,active: 12.6 µM,–
Cc1cccc(N2CCN(C(=O)CN3C(=O)COc4ccc(S(=O)(=O)N5CCCC5)cc43)CC2C)c1 (centres undefined),"inconclusive: 31.6 µM [activator, single point]",–
CC(=O)OC[C@@H]1CN(Cc2ccccc2)C[C@H](n2cnc3c(NC4CCCC4)ncnc32)O1,"inconclusive: 6.31 µM [activator, single point]",–
CCN(C(=O)COC(=O)CCC(=O)c1cccs1)c1ccccc1,–,inconclusive: 129% [activator] [at 1.84 µM]

SMILES,Potency,growth rescue (activation)
CCN(C(=O)COc1ccc(F)cc1Br)c1c(N)n(Cc2ccccc2)c(=O)[nH]c1=O,"inconclusive: 0.501 µM [activator, partial curve, poor fit]",–
C=CCn1c(SCc2c(F)cccc2Cl)nnc1-c1ccco1,inactive,–
O=C(CSc1nc2[nH]ncc2c(=O)[nH]1)Nc1cc(C(F)(F)F)ccc1Cl,"inconclusive: 5.01 µM [activator, single point]",–
CCCCCCCCCCCCCCCC[N+](C)(C)CCl,–,inconclusive: -75.4% [activator]
COC(=O)[C@H](Cc1ccccc1)NC(=O)NCCc1ccc(S(N)(=O)=O)cc1,"inconclusive: 22.4 µM [activator, single point]",–
CCCc1nc2ccc(C)cn2c1Cc1ccsc1,"inconclusive: 35.5 µM [activator, single point]",–
O=C(O)c1cccc(N2C(=O)CSC2=S)c1,active: 35.5 µM,–
Cc1ccc2c(cnn2C(=O)CCC(=O)NCc2cccc(Br)c2)c1,"inconclusive: 20 µM [activator, single point]",–
Clc1ccc(C(c2ccccc2)c2c[nH]c3ccccc23)s1 (centres undefined),inactive,–
CCCn1c2ccccc2c2cnn(CC(=O)NCCCOC)c(=O)c21,inactive,–
CC(C)(C)NC(=S)NNC(=O)[C@H]1C[C@@H]1c1ccccc1,inactive,–
COc1cc(NC(=O)Nc2cccc(-c3noc(C)n3)c2)cc(OC)c1OC,inactive,–
CCCn1nnnc1NC(=O)c1cc(Cl)ccc1Cl,"inconclusive: 35.5 µM [activator, single point]",–
CC(C)C(=O)NC(c1ccc(Cl)cc1Cl)c1ccc2cccnc2c1O (centres undefined),"inconclusive: 31.6 µM [activator, single point]",–
O=S(=O)(NCc1csc(-c2ccccc2)n1)c1ccc(Cl)s1,"inconclusive: 31.6 µM [activator, single point]",–
O=C(Nc1ccc2c(c1)OCO2)c1cc(C2CCCN(C(=O)CCCc3ccccc3)C2)on1 (centres undefined),inactive,–
Cc1ccc(N(C(=O)c2snc(C(N)=O)c2N)C(C(=O)NCC2CCCO2)c2ccc(C)o2)c(C)c1 (centres undefined),"inconclusive: 35.5 µM [activator, single point]",–
Nc1cc2c(cc1Cl)-c1ccccc1C2=NO,"inconclusive: 8.91 µM [activator, partial curve]",–
COc1ccccc1CNC(=O)CC(c1ccc(C)cc1)N1Cc2ccccc2C1=O (centres undefined),"inconclusive: 5.62 µM [activator, single point]",–
O=C(O)CSC1=NS(=O)(=O)c2ccccc21,inactive,–
CN(Cc1ccco1)S(=O)(=O)c1ccc(CN2C(=O)c3cccnc3C2=O)s1,"inconclusive: 35.5 µM [activator, single point]",–
O=C(N/N=C/c1cc([N+](=O)[O-])ccc1O)C12CC3CC(CC(C3)C1)C2,"inconclusive: 2.24 µM [activator, partial curve, poor fit]",–
